The target of assay [1] is T1, murine IL7Ra-IL2Rg-Fc biotin (murine, UniProt P16872 21-239; P34902 23-263).
T1 construct: extracellular domain; Heterodimer of the ECD of IL7Ra and IL2Rg chains fused to an Fc; also called murine IL7Ralpha-IL2Rgamma-Fc heterodimer; murine IL7 receptor; not shown: Fc part and avi tag; Fc part
T1 sequence (looked up) 1: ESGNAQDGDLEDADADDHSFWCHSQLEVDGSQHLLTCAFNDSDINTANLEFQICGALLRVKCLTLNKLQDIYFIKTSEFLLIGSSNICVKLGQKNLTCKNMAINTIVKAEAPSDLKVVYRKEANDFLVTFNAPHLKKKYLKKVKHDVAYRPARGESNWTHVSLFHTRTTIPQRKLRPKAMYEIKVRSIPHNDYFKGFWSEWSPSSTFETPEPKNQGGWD
T1 sequence (looked up) 2: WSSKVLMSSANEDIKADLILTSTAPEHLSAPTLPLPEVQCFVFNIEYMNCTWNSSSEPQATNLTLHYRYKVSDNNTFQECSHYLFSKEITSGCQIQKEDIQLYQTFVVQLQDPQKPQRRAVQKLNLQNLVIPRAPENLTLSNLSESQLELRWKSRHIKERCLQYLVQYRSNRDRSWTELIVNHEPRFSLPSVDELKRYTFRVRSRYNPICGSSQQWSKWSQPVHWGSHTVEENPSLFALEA
As to the kind of experiment: SPR, captured via anti-P329G. The procedure: (§1) Surface Plasmon Resonance (SPR) experiments were performed on a Biacore 8 K with HBS-EP + 1 mg/ml BSA as running buffer. Anti-P329G Fc specific antibody (Roche internal) was directly immobilized by amine coupling on a C1 chip (Cytiva). The PD1-IL7 constructs were captured for 140 s at 5 nM. […] The dissociation phase was monitored for 800 s and triggered by switching from the sample solution to running buffer. The chip surface was regenerated after every cycle using two injections of 10 mM glycine pH 2 for 60 sec. Bulk refractive index differences were corrected for by subtracting the response obtained on the reference flow cell (containing immobilized anti P329G Fc specific IgG only). The affinity constants were derived from the kinetic rate constants by fitting to a 1:1 Langmuir binding using the Biacore evaluation software (Cytiva).
Four IL7 single variants and two IL7 double variants were compared to IL7 wild-type for binding to murine IL7 receptor (Table 19). The affinity of the IL7 variants to the IL7 receptor was determined using the recombinant heterodimer of the extracellular domains of the IL7 receptor alpha chain and the common IL2 receptor gamma chain.
On the technique in general: Surface plasmon resonance follows binding to a sensor surface in real time, without labels.

Assay [2] deals with T2, IL-7Rα/IL-2Rγ on human T cells (human, UniProt P16871 21-459; P31785 23-369).
T2 sequence (looked up) 1: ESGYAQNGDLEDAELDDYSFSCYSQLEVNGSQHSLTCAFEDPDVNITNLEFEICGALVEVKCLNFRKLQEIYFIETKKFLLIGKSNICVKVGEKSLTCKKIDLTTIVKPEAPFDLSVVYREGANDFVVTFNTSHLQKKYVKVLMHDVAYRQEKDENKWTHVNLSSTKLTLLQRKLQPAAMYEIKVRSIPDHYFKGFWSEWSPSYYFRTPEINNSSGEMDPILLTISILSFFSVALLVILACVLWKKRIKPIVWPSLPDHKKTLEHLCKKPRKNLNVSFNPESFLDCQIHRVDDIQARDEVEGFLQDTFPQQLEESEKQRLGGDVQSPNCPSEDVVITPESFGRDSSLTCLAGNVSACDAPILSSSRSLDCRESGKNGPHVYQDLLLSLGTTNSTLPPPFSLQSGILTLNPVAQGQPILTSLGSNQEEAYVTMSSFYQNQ
T2 sequence (looked up) 2: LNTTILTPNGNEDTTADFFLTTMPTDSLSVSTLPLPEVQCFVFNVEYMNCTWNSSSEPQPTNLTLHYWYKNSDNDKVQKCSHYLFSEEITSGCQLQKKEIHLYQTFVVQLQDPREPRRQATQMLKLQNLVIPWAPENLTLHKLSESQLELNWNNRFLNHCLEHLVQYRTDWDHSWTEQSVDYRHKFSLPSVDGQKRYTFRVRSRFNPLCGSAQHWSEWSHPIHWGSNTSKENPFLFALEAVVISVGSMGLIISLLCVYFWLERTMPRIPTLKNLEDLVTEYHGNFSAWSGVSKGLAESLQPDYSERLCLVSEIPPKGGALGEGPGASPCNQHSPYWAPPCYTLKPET
The assay is described as follows: cell-based or functional assay.

The next assay deals with human PD-1 on T cells (human, UniProt Q15116 25-288). As to the kind of experiment: cell-based or functional assay.
In assay [3] the target is T3, Human IL7Ra-IL2Rγ-Fc heterodimer (human, biotin on the avi tag).
T3 construct: Extracellular domains of IL-7Ralpha and IL-2Rgamma fused to Fc knob and Fc hole; also called hu IL7Ra-IL2Rγ-Fc avi biotin; human IL7Ra-IL2Rg-Fc biotin
The assay is described as follows: SPR (Example 2.4), captured via anti-P329G, receptor-Fc 2.34-300 nM, 1:1 fit. The procedure:
as §1, with “SPR” for “Surface Plasmon Resonance (SPR)”
Four IL7 single variants, two IL7 double variants and IL7 wild-type were compared to four reference molecules with modified IL7 for binding to human IL7 receptor (Table 23). The affinity of the IL7 variants to the IL7 receptor was determined using the recombinant heterodimer of the extracellular domains of the IL7 receptor alpha chain and the common IL2 receptor gamma chain.

The target in assay [4] is T3, Human IL7Ra-IL2Rγ-Fc heterodimer. As to the kind of experiment: SPR, captured via anti-P329G, receptor-Fc 2.34-300 nM, 1:1 fit. As to the method:
as §1
Four IL7 single variants and two IL7 double variants were compared to IL7 wild-type for binding to human IL7 receptor (Table 17). The affinity of the IL7 variants to the IL7 receptor was determined using the recombinant heterodimer of the extracellular domains of the IL7 receptor alpha chain and the common IL2 receptor gamma chain.

Assay [5] has the same target. The assay is described as follows: SPR, captured from supernatant, 800 nM receptor-Fc single injection. The procedure:
Surface Plasmon Resonacne (SPR) experiments were performed on a Biacore T200 with HBS-EP+ as running buffer (0.01 M HEPES pH 7.4, 0.15 M NaCl, 0.005% Surfactant P20 (BR-1006-69, GE Healthcare)). Fc specific antibodies (Roche internal) were directly immobilized by amine coupling on a CM5 chip (GE Healthcare). The PDI-IL7 constructs were captured from supernatants for 120 s at 100 nM. […] Only the extracellular domains were fused to Fc domains, produced in HEK Expi Cells and purified by two-step column chromatography including affinity purification via Protein A followed by size-exclusion chromatography. A single injection of 800 nM hu IL 7Ra-IL2Rγ-Fc heterodimer was passed over the ligand at 30 µ1/min for 240 sec to record the association phase. The dissociation phase was monitored for 360 s and triggered by switching from the sample solution to HBS-EP+. The chip surface was regenerated after every cycle using one injection of 10 mM glycine pH 2 for 60 sec. Bulk refractive index differences were corrected for by subtracting the response obtained on the reference flow cell 1. The response units after the capture step and at the end of the association phase were recorded and a ratio of binding to capture was calculated. The single binding curves were fitted in the dissociation phase to obtain a koff for ease of comparison (Biacore Evaluation software, GE Healthcare).
The ratio of binding to capture was calculated and the dissociation phase was fitted to a single curve to support the characterization of the off-rate.

Assay [6] has as its target T4, cynomolgus IL7Ra-IL2Rg-Fc biotin (cynomolgus, UniProt P13232;Q29615).
T4 construct: extracellular domain; Heterodimer of the ECD of IL7Ra and IL2Rg chains fused to an Fc; also called cynomolgus IL7Ralpha-IL2Rgamma-Fc heterodimer; cynomolgus IL7 receptor
The assay is described as follows: SPR, captured via anti-P329G, receptor-Fc 2.34-300 nM, 1:1 fit. The procedure:
as §1
Four IL7 single variants and two IL7 double variants were compared to IL7 wild-type for binding to cynomolgus IL7 receptor (Table 18). The affinity of the IL7 variants to the IL7 receptor was determined using the recombinant heterodimer of the extracellular domains of the IL7 receptor alpha chain and the common IL2 receptor gamma chain.

The target of assay [7] is T2, IL-7Rα/IL-2Rγ on human T cells. The assay is described as follows: cell-based or functional assay. This is another data set of the same source.
For assay [8] the target is unchanged. As to the kind of experiment: cell-based or functional assay. The source holds these as a separate data set.
Assay [9] addresses T3, Human IL7Ra-IL2Rγ-Fc heterodimer. As to the kind of experiment: SPR (Example 2.4), captured via anti-P329G, receptor-Fc 2.34-300 nM, 1:1 fit, single value. The procedure: as §1, with “SPR” for “Surface Plasmon Resonance (SPR)”

The values that follow come from patent publication US20230192795A1 (Hoffmann-La Roche, published 2023).

Sequence of human PD-1 on T cells (Q15116 25-288 limits assumed): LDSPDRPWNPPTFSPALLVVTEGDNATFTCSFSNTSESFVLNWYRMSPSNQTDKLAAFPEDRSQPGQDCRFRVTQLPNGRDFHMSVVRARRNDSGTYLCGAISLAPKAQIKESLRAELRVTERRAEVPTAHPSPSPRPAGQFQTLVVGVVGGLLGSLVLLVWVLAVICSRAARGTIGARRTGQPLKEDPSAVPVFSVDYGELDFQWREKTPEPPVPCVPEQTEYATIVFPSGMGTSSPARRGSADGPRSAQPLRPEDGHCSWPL

B1: PD1-IL7-VAR4 (V15K) (other)
light: DIVMTQSPDSLAVSLGERATINCKASESVDTSDNSFIHWYQQKPGQSPKLLIYRSSTLESGVPDRFSGSGSGTDFTLTISSLQAEDVAVYYCQQNYDVPWTFGQGTKVEIKRTVAAPSVFIFPPSDEQLKSGTASVVCLLNNFYPREAKVQWKVDNALQSGNSQESVTEQDSKDSTYSLSSTLTLSKADYEKHKVYACEVTHQGLSSPVTKSFNRGEC
heavy 1: EVQLLESGGGLVQPGGSLRLSCAASGFSFSSYTMSWVRQAPGKGLEWVATISGGGRDIYYPDSVKGRFTISRDNSKNTLYLQMNSLRAEDTAVYYCVLLTGRVYFALDSWGQGTLVTVSSASTKGPSVFPLAPSSKSTSGGTAALGCLVKDYFPEPVTVSWNSGALTSGVHTFPAVLQSSGLYSLSSVVTVPSSSLGTQTYICNVNHKPSNTKVDKKVEPKSCDKTHTCPPCPAPEAAGGPSVFLFPPKPKDTLMISRTPEVTCVVVDVSHEDPEVKFNWYVDGVEVHNAKTKPREEQYNSTYRVVSVLTVLHQDWLNGKEYKCKVSNKALGAPIEKTISKAKGQPREPQVCTLPPSRDELTKNQVSLSCAVKGFYPSDIAVEWESNGQPENNYKTTPPVLDSDGSFFLVSKLTVDKSRWQQGNVFSCSVMHEALHNHYTQKSLSLSPGK
heavy 2: EVQLLESGGGLVQPGGSLRLSCAASGFSFSSYTMSWVRQAPGKGLEWVATISGGGRDIYYPDSVKGRFTISRDNSKNTLYLQMNSLRAEDTAVYYCVLLTGRVYFALDSWGQGTLVTVSSASTKGPSVFPLAPSSKSTSGGTAALGCLVKDYFPEPVTVSWNSGALTSGVHTFPAVLQSSGLYSLSSVVTVPSSSLGTQTYICNVNHKPSNTKVDKKV[human IgG1 Fc with changes left out]GGGGSGGGGSGGGGSDCDIEGKDGKQYESKLMVSIDQLLDSMKEIGSNCLNNEFNFFKRHICDANKEGMFLFRAARKLRQFLKMNSTGDFDLHLLKVSEGTTILLNCTGQVKGRKPAALGEAQPTKSLEENKSLKEQKKLNDLCFLKRLLQEIKTCWNKILMGTKEH
notes: Format as m1; IL-7 with V15K; also called PD1-IL7 -V15K (Var4); P1AF5541-006
As for B1, the binding result in assay [1] was “no binding (tested: 2.34 to 300 nM receptor-Fc)”. Besides, in [2], the “fold increase in EC50, EC50 [PD1+]/EC50 PD1-IL7wt [PD1+]” value is 2.5 fold. Also, the “fold increase in EC50, EC50 [with PD1bl]/EC50 [PD1+]” value in the assay with human PD-1 on T cells is 28.8 fold. In addition, the Kd in assay [3] was 40.2 nM; in assay [4], 25.8 nM; in assay [6], 36.5 nM. The koff in assay [3] is 0.0101 s⁻¹; in assay [4], 0.00535 s⁻¹; in [5] it was 0.00994 s⁻¹; in [6], 0.012 s⁻¹. In addition, the kon in assay [3] is 251000 M⁻¹ s⁻¹; in assay [4], 305000 M⁻¹ s⁻¹; in [6] it was 329000 M⁻¹ s⁻¹.

B2: PD1-IL7-VAR18 (K81E) VAR21 (G85E) (other)
light: B1 light
heavy 1: B1 heavy 1
heavy 2: EVQLLESGGGLVQPGGSLRLSCAASGFSFSSYTMSWVRQAPGKGLEWVATISGGGRDIYYPDSVKGRFTISRDNSKNTLYLQMNSLRAEDTAVYYCVLLTGRVYFALDSWGQGTLVTVSSASTKGPSVFPLAPSSKSTSGGTAALGCLVKDYFPEPVTVSWNSGALTSGVHTFPAVLQSSGLYSLSSVVTVPSSSLGTQTYICNVNHKPSNTKVDKKV[human IgG1 Fc with changes left out]GGGGSGGGGSGGGGSDCDIEGKDGKQYESVLMVSIDQLLDSMKEIGSNCLNNEFNFFKRHICDANKEGMFLFRAARKLRQFLKMNSTGDFDLHLLEVSEETTILLNCTGQVKGRKPAALGEAQPTKSLEENKSLKEQKKLNDLCFLKRLLQEIKTCWNKILMGTKEH
notes: Format as m1; IL-7 with K81E and G85E; also called PD1-IL7 VAR18/21 (K81E/G85E); PD1-IL7VAR18/21
Consider B2, for which, in assay [7], the “EC50[active] / EC50 [active PD1-IL7wt]” value is 106 fold, the “EC50[fresh]/EC50 [fresh PD1-IL7wt]” value was found to be 1720 fold, the “STAT5-P AUC [active]” value came to 42.8 and the “STAT5-P AUC [fresh]” value is 73. In addition, in assay [8], the “EC50 [PD1+]/ EC50[PD1-IL7wt]” value is 49.9 fold, the “STAT5-P AUC PD1+” value worked out at 28.5 and the “STAT5-P AUC PD1 blocked” value was 3. For the same molecule, the binding result in [1] is recorded as “no binding (tested: 2.34 to 300 nM receptor-Fc)”. In assay [4], this molecule returned a Kd of 266 nM, a koff of 0.0207 s⁻¹ and a kon of 78100 M⁻¹ s⁻¹. In assay [9], this molecule showed a Kd of 342 nM, a koff of 0.0148 s⁻¹ and a kon of 43300 M⁻¹ s⁻¹. In assay [6], this molecule showed a Kd of 529 nM, a koff of 0.035 s⁻¹ and a kon of 67000 M⁻¹ s⁻¹.

Broadly, the Kd is the concentration at which binding is half-saturated. Read a low Kd as a tighter complex. Usually koff stands for the rate constant with which the complex falls apart. A lower koff goes with slow dissociation. The kon is the second-order rate constant of association. A high value points to fast association.
